Measured values: paper doi:10.1101/2020.10.06.326603 (bioRxiv, 2020)

T1: IscS S10Q, H247P, Q248L variant (E. coli, UniProt P0A6B7 1-404, S10Q | H247P | Q248L)
T1 sequence: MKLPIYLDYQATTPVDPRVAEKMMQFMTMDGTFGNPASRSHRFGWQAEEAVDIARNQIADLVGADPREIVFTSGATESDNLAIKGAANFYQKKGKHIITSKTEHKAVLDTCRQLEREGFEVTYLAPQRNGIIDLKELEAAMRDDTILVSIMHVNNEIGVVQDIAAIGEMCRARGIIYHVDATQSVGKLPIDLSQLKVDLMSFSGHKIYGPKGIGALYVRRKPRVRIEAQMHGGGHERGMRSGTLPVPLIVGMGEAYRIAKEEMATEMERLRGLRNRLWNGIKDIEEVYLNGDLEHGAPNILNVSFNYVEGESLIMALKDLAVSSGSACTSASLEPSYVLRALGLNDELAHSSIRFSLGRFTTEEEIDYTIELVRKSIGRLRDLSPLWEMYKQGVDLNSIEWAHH


Key:
[1] = biological target: the molecule itself; experiment: cell-based or functional assay
SEC = biological target: the molecule itself; experiment: SEC
[2] = biological target: the molecule itself
[3] = biological target: T1, IscS S10Q, H247P, Q248L variant; experiment: SEC

Binder | cysteine desulfurase activity under standard conditions (kcat) [1] | stoichiometry N (SEC) | Kd [2] | binding result [3]
Escherichia coli IscS (native cysteine desulfurase) (enzyme, E. coli) MKLPIYLDYSATTPVDPRVAEKMMQFMTMDGTFGNPASRSHRFGWQAEEAVDIARNQIADLVGADPREIVFTSGATESDNLAIKGAANFYQKKGKHIITSKTEHKAVLDTCRQLEREGFEVTYLAPQRNGIIDLKELEAAMRDDTILVSIMHVNNEIGVVQDIAAIGEMCRARGIIYHVDATQSVGKLPIDLSQLKVDLMSFSGHKIYGPKGIGALYVRRKPRVRIEAQMHGGGHERGMRSGTLPVHQIVGMGEAYRIAKEEMATEMERLRGLRNRLWNGIKDIEEVYLNGDLEHGAPNILNVSFNYVEGESLIMALKDLAVSSGSACTSASLEPSYVLRALGLNDELAHSSIRFSLGRFTTEEEIDYTIELVRKSIGRLRDLSPLWEMYKQGVDLNSIEWAHH | 0.137 s⁻¹ | – | – | –
IscS S10Q variant (enzyme, E. coli) MKLPIYLDYQATTPVDPRVAEKMMQFMTMDGTFGNPASRSHRFGWQAEEAVDIARNQIADLVGADPREIVFTSGATESDNLAIKGAANFYQKKGKHIITSKTEHKAVLDTCRQLEREGFEVTYLAPQRNGIIDLKELEAAMRDDTILVSIMHVNNEIGVVQDIAAIGEMCRARGIIYHVDATQSVGKLPIDLSQLKVDLMSFSGHKIYGPKGIGALYVRRKPRVRIEAQMHGGGHERGMRSGTLPVHQIVGMGEAYRIAKEEMATEMERLRGLRNRLWNGIKDIEEVYLNGDLEHGAPNILNVSFNYVEGESLIMALKDLAVSSGSACTSASLEPSYVLRALGLNDELAHSSIRFSLGRFTTEEEIDYTIELVRKSIGRLRDLSPLWEMYKQGVDLNSIEWAHH | 0.0317 s⁻¹ | 2 | 1000 nM | –
IscS H247P Q248L variant (enzyme, E. coli) MKLPIYLDYSATTPVDPRVAEKMMQFMTMDGTFGNPASRSHRFGWQAEEAVDIARNQIADLVGADPREIVFTSGATESDNLAIKGAANFYQKKGKHIITSKTEHKAVLDTCRQLEREGFEVTYLAPQRNGIIDLKELEAAMRDDTILVSIMHVNNEIGVVQDIAAIGEMCRARGIIYHVDATQSVGKLPIDLSQLKVDLMSFSGHKIYGPKGIGALYVRRKPRVRIEAQMHGGGHERGMRSGTLPVPLIVGMGEAYRIAKEEMATEMERLRGLRNRLWNGIKDIEEVYLNGDLEHGAPNILNVSFNYVEGESLIMALKDLAVSSGSACTSASLEPSYVLRALGLNDELAHSSIRFSLGRFTTEEEIDYTIELVRKSIGRLRDLSPLWEMYKQGVDLNSIEWAHH | 0.0683 s⁻¹ | 2 | 1400 nM | –
E. coli scaffold protein IscU (natural protein, UniProt P0ACD4 1-128, looked up) MAYSEKVIDHYENPRNVGSFDNNDENVGSGMVGAPACGDVMKLQIKVNDEGIIEDARFKTYGCGSAIASSSLVTEWVKGKSLDEAQAIKNTDIAEELELPPVKIHCSILAEDAIKAAIADYKSKREAK | – | – | – | binds
